Laboratory results from PubChem BioAssay AID493208 (National Center for Advancing Translational Sciences (NCATS), 2011).
Hit rate of the full screen: of about 44,000 compounds, about 340 (0.77%) were called active. Roughly 5% stayed inconclusive and do not appear here. Calls come from the whole dose curve; as a rule, active = well fitted inhibition curve with a large enough effect; inconclusive = small, poorly fitted or top-dose-only effect; inactive = flat fitted curve, though single readings scatter. This is one part of the list.

test: Acumen qHTS Assay for Inhibitors of the mTORC1 Signaling Pathway in MEF (Tsc2-/-, p53-/-) Cells: Sytravon; settings: phospho-rpS6 immunofluorescence/PI, 24 h; series mostly up to 38.3 µM; activity change, negative = inhibition: at the top concentration;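 note: plate controls were DMSO for no effect and rapamycin for full effect; nearly all actives have a fitted effect of over 50% in size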
In short: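 Cell-based qHTS: Tsc2-/- p53-/- MEF, 24 h cpd, 37 °C; fix/perm, anti-phospho-S6 Alexa-488 + PI; Acumen 488 nm scan; pS6/PI ratio, % positive cells; rapamycin 7.5 nM = inhibition ref; PI count = viability.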

Row | SMILES | activity change, negative = inhibition
1 | Cc1ccc(NC(=O)c2cc3ccccn3n2)cc1F | inactive: 0%
2 | Cc1ccc(Cl)cc1N1CCN(C(=O)CSc2cc(=O)n(C)c3ccccc23)CC1 | inactive: -8.1%
3 | Cc1cc(C)c(NC(=O)Cn2c(=O)n(CCC(=O)NCc3ccccc3Cl)c(=O)c3sccc32)c(C)c1 | inactive: 1.36%
4 | COc1ccc(C(=O)Nc2ccc3nc(SCC(=O)N(C)c4ccccc4)sc3c2)cc1 | inactive: -1.95%
5 | O=C(CSc1cn(CCNC(=O)c2cccc(C(F)(F)F)c2)c2ccccc12)Nc1ccc2c(c1)OCCO2 | inactive: -10.2%
6 | CC(C)(C)c1ccc2c(c1)N(CC(=O)NCCCN1CCN(c3ccccc3F)CC1)C(=O)CO2 | inactive: -9.42%
7 | CC(C)N(C(=O)Cn1cc(S(=O)(=O)Cc2ccc(Br)cc2)c2ccccc21)C(C)C | inactive: -7.14%
8 | COc1ccc(NC2=C(c3ccccc3)C(=O)c3ccccc32)cc1Cl | inactive: -3.66%
9 | CC1CCN(S(=O)(=O)c2ccc3c(c2)N(CC(=O)NCCCN2CCCCC2)C(=O)CS3)CC1 | inactive: 6.88%
10 | Cc1ccc(CNC(=O)c2cc(-c3ccc(C)cc3)nc3n[nH]c(-c4cccc([N+](=O)[O-])c4)c23)cc1 | inactive: 0.304%
11 | O=C(c1ccc(F)cc1)N1CCC(c2nc3ccccc3s2)CC1 | inactive: -1.04%
12 | CCOc1ccc(S(=O)(=O)NCCc2c(C)[nH]c3c(Cl)cccc23)cc1C | inactive: 2.21%
13 | Cc1c(C(=O)Nc2ccc(F)c(C(F)(F)F)c2)sc2nc(-c3ccccc3)cn12 | inactive: 0%
14 | O=C(CCn1cccn1)Nc1ccc(Br)cc1F | inactive: -11.1%
15 | CCOC(=O)CSc1nc2ccc(NC(=O)c3cccc(F)c3)cc2s1 | inactive: -0.506%
16 | COc1cccc(NC(=O)CN(CCc2ccccc2)S(=O)(=O)c2ccc(Cl)cc2)c1 | inactive: 4.26%
17 | Cc1nc2ccccc2n1CCc1nc2c3ccccc3nc(SCc3ccc(C#N)cc3)n2n1 | inactive: -3.37%
18 | O=c1c(NCc2cccs2)nccn1-c1ccc(F)cc1 | inactive: -5.5%
19 | CCOc1ccc(NS(=O)(=O)c2ccc3[nH]c4c(c3c2)CCCCC4)cc1 | inactive: -0.433%
20 | O=C(COCc1cc(-c2ccc(F)cc2)on1)Nc1cc(F)ccc1F | inactive: 0.833%
21 | O=S(=O)(NCc1nc2cccnc2n1Cc1ccccc1Cl)c1ccc2c(c1)CCCC2 | inactive: -4%
22 | Cc1cccc(-c2nc3c4ccccc4nc(NCCc4ccccc4)n3n2)c1 | inactive: -2.36%
23 | CCOc1ccccc1NS(=O)(=O)c1ccc2c(c1)oc(=O)n2C | inactive: -11.3%
24 | CCN(CC)CCCNC(=O)Cc1csc2nc(-c3ccc(Cl)cc3)cn12 | inactive: -13%
25 | CCc1cc2c(cc3c(=O)n(CCCC(=O)NCc4cccc(Cl)c4)ncn32)s1 | inactive: 0.684%

Row | SMILES | activity change, negative = inhibition
26 | Cc1cccc(CCNC(=O)c2cc3c(=O)n(C)c4ccccc4c3n2C)c1 | inactive: -11.1%
27 | O=C(CN1C(=O)CCn2nc(-c3ccccc3)cc21)NCc1ccc(Cl)cc1 | inactive: 2.62%
28 | Cc1cc2c(n1-c1ccc(C(=O)NCc3ccccc3Cl)cc1)CCCC2 | inactive: -11.1%
29 | COc1ccccc1N1CCN(C(=O)c2c(C)oc3ncn(C)c(=O)c23)CC1 | inactive: 2.87%
30 | O=C(CCSCc1ccccc1Cl)NCc1ccc(F)cc1Cl | inactive: -6.91%
31 | CC(C)c1cnc2c(c1SCC(=O)NCc1ccccc1Cl)c(=O)n(C)c(=O)n2C | inactive: -10.1%
32 | O=C(c1ccc2c(c1)N(Cc1cccc(F)c1)C(=O)c1ccccc1S2)N1CCCC1 | inactive: 0.706%
33 | COc1ccc(C(CC(=O)Nc2ccc(C(C)=O)cc2)N2Cc3ccccc3C2=O)cc1 (stereo not drawn) | inactive: -12.7%
34 | Cc1cccc2c1-c1sc(C(=O)N(C)c3cccc(Cl)c3)cc1CO2 | inactive: -11.2%
35 | Cc1cccc(N2CCN(C(=O)c3noc4c3COc3ccc(C)cc3-4)CC2C)c1 (stereo not drawn) | inactive: 8.5%
36 | COc1ccc(NC(=O)NC2COc3ccccc3C2)cc1Cl (stereo not drawn) | inactive: 3.09%
37 | Cc1ccc(CN2C(=O)c3ccccc3CC2(C)C(=O)NC2CCCCC2)cc1 (stereo not drawn) | inactive: 6.5%
38 | CSc1ccc(CCNC(=O)CCc2c(C)nc3ncnn3c2C)cc1 | inactive: -12.1%
39 | CCOc1ccccc1C(=O)NC1(C(F)(F)F)C(=O)Nc2c1c(=O)[nH]c(=O)n2-c1ccc(F)cc1 (stereo not drawn) | inactive: 9.74%
40 | Cn1nnnc1SCCNCc1cc(Br)ccc1OCc1ccccc1Cl | inactive: -15.8%
41 | Cc1ccc(C(=O)Nc2cccc3cccnc23)cc1Cl | inactive: -0.636%
42 | COc1cccc(OC)c1C(=O)NCCc1csc(-c2ccc(Cl)cc2)n1 | inactive: 7.53%
43 | CCOC(=O)c1c(Nc2ccc(OC)cc2)nnc(-c2ccccc2)c1-c1ccccc1 | inactive: -11%
44 | CCOc1ccc(NC(=O)COc2ccc(S(=O)(=O)NC3CCCCC3)cc2)cc1 | inactive: -7.61%
45 | CN1CCN(c2ncc3c(n2)CCN(Cc2ccc(Br)s2)C3)CC1 | inactive: -15.3%
46 | COc1ccc(-c2csc(=Nc3ccccc3)n2CCO)cc1F | inactive: 1.35%
47 | Cc1ccc(Cl)cc1Nc1nn2c(=O)c3ccc(C(=O)NCc4ccc(F)cc4)cc3nc2s1 | inactive: -4.74%
48 | Cc1cccn2c(=O)c(C(=O)NCc3cccc(F)c3)cnc12 | inactive: 0.13%
49 | CCOc1ccc(CNC(=O)Cc2ccc(NC(=O)N3CCSc4ncccc43)cc2)cc1 | inactive: -11.9%
50 | Cc1cccc(-c2nc3scc(CCNS(=O)(=O)c4ccc5c(c4)OCCO5)n3n2)c1 | inactive: 0.0285%

Row | SMILES | activity change, negative = inhibition
51 | CC(=O)c1ccc(N2CCN(C(=O)C3CCN(S(=O)(=O)c4cn(C)cn4)CC3)CC2)cc1 | inactive: 1.69%
52 | Cn1c(=O)c2sccc2n2c(CCC(=O)NCc3ccc(Cl)cc3)nnc12 | inactive: -0.503%
53 | CCCOc1ccc(-c2nc(SCC(=O)c3ccc(Cl)cc3)n[nH]2)cc1 | inactive: -8.4%
54 | CCOC(=O)N1CCc2c(sc3c2c(=O)n(-c2ccc(Cl)cc2)c(=O)n3CC(C)C)C1 | inactive: -2.16%
55 | COc1ccc(Nc2c(-c3cccc(O)c3)nc3cnccn23)cc1 | inactive: 11%
56 | COc1ccccc1-c1cc(C(=O)NCc2ccccc2)c2c(-c3ccc(C)cc3)[nH]nc2n1 | inactive: -0.837%
57 | COc1ccc(NC(=O)c2oc3ccccc3c2NC(=O)Cc2coc3c(C)c(C)ccc23)cc1 | inactive: -2.25%
58 | COc1ccc(-c2nc3cc(NC(=O)CSc4ccc(C)cc4)ccc3o2)cc1 | inactive: -15.3%
59 | CCc1ccc(NC(=O)Cn2ccn(-c3ccc(C)c(C)c3)c(=O)c2=O)cc1 | inactive: 1.58%
60 | O=C(CSc1n[nH]c(-c2ccc(F)cc2)n1)NCCc1ccccc1 | inactive: 3.87%
61 | Cc1c(Cl)cccc1NC(=O)CCS(=O)(=O)c1ccc2c(c1)CC(=O)N2C | inactive: 2.37%
62 | Cc1ccc(S(=O)(=O)NCCc2cn3ccsc3n2)c(C)c1 | inactive: -2.66%
63 | CCN(CC)CCNC(=O)c1c2c(nc3ccccc13)C(=O)N(C1CCCCC1)C2 | inactive: -0.112%
64 | COc1cccc(NC(=O)Cn2cc(C(=O)c3ccc(C)cc3)c(=O)c3cc(OC)ccc32)c1 | inactive: -12.7%
65 | Cc1ccccc1NC(=O)Cn1c(=O)n(Cc2ccc3c(c2)OCO3)c(=O)c2ccccc21 | inactive: -21.2%
66 | Cc1cccc(C2CC(=O)Nc3cc4c(cc32)OCO4)c1 (stereo not drawn) | inactive: -12.4%
67 | CCc1nc2nc(C)cc(Nc3cccc(C)c3C)n2n1 | inactive: -11.8%
68 | CCc1ccc(NC(=O)CN2C(=O)C3(SCC(=O)N3c3ccc(F)c(F)c3)c3ccccc32)cc1 (stereo not drawn) | inactive: 1.95%
69 | Cc1cc2ccccc2n1CCNC(=O)c1ccc(Br)cc1 | inactive: 1.23%
70 | CC(C)c1ccc(OCC(=O)N(Cc2cccs2)C2CCS(=O)(=O)C2)cc1 (stereo not drawn) | inactive: 1.54%
71 | COc1ccc(CNC(=O)CCc2c(C)c3cc4c(C)c(C)oc4cc3oc2=O)cc1OC | inactive: 0.115%
72 | O=C(NC1CCCC1)c1ccc2c(=O)n(Cc3ccccc3)c(SCc3cccc(F)c3)nc2c1 | inactive: -0.525%
73 | CCN(CC)c1ccc(NC(=O)CCCN2C(=O)C(c3ccccc3)Oc3cccnc32)c(C)c1 (stereo not drawn) | inactive: -13.7%
74 | CCOc1cc(Cl)c(S(=O)(=O)n2ccnc2)cc1Cl | inactive: 3.61%
75 | Cc1nnc(N2CCC(C(=O)NCCC(C)C)CC2)c2nn(-c3ccc(Cl)cc3)c(C)c12 | inactive: -9.12%

Row | SMILES | activity change, negative = inhibition
76 | CCC(C(=O)N1CCN(c2ccccc2)CC1)n1c(C)c2cnn(-c3ccccc3)c(=O)c2c1C (stereo not drawn) | inactive: -6.78%
77 | Cc1cc(C)n(C(C)CC(=O)Nc2ccc(C)c(N(C)C)c2)n1 (stereo not drawn) | inactive: -5.37%
78 | C=C(C)CSc1nc(-c2ccccc2)cc(-c2ccc(OC)cc2)c1C#N | inactive: -13.7%
79 | COC(=O)c1ccc(NC(=O)CN2C(=O)CC(c3ccccc3)Sc3ccccc32)cc1 (stereo not drawn) | inactive: -3.2%
80 | Cc1ccc(N2CC(C(=O)Nc3ccc(N(C)C)cc3)CC2=O)cc1Cl (stereo not drawn) | inactive: -12.6%
81 | Fc1ccccc1N1CCN(c2nc3ccccc3c3nc(-c4ccccc4)nn23)CC1 | inactive: -3.24%
82 | CSc1ccc(-c2nnc(NC(=O)c3ccc4c(c3)OCCO4)o2)cc1 | inactive: 6.39%
83 | CC(=O)Nc1cccc(-n2cc3c(c2-c2ccccc2Cl)c(=O)n(C)c(=O)n3C)c1 | inactive: -1.57%
84 | O=C(CCn1ccc2cc(S(=O)(=O)N3CCCC3)ccc21)NCc1ccccc1Br | inactive: -2.67%
85 | O=C(CN1C(=O)c2cccnc2Oc2ccc(Cl)cc21)Nc1cccc(C(F)(F)F)c1 | inactive: -9.99%
86 | COc1ccc(C)cc1Nc1cc(C)nc(C)n1 | inactive: -0.379%
87 | CC(C)Oc1ccc(C(=O)Nc2c(C(=O)Nc3cccc(F)c3)oc3ccccc23)cc1 | inactive: 2.65%
88 | COc1ccc(-c2cc(C(F)(F)F)nc(SCC(=O)NCC(C)C)n2)cc1OC | inactive: -8.14%
89 | Cc1ccc(CNC(=O)c2ccc(CS(=O)Cc3cccc(Cl)c3)o2)cc1 (stereo not drawn) | inactive: -6.25%
90 | Cc1ccn2c(=O)cc(COc3cccc(NC(=O)Nc4cccc(Cl)c4C)c3)nc2c1 | inactive: 0.408%
91 | COc1ccccc1NC(=O)C1=C(C)Nc2nc3ccccc3n2C1c1cccc(OC)c1OC (stereo not drawn) | inactive: -3.16%
92 | O=C(NCCCN1CCOCC1)c1ccc2c(c1)N(Cc1cccc(Cl)c1)C(=O)c1ccccc1S2 | inactive: 4.12%
93 | COc1ccc(NC(C)=O)cc1NC(=O)CN1CCN(c2ccc(F)cc2)CC1 | inactive: 0%
94 | O=S(=O)(c1cccc2ccccc12)N1CCN(c2ccc(Cl)c(Cl)c2)CC1 | inactive: -2.27%
95 | CCOc1cc(C(=O)NCC(c2ccc(N(C)C)cc2)N2CCOCC2)cc(OCC)c1OCC (stereo not drawn) | inactive: 4.68%
96 | CCOc1ccc(CNCc2c(C(=O)O)c(C)n(Cc3c(F)cccc3Cl)c2C)cc1OC | inactive: -4.49%
97 | Cc1ccc(-c2cn3c(n2)sc2cc(C(=O)NCCCc4ccccc4)ccc23)c(C)c1 | inactive: 4.24%
98 | CC1CCCN(S(=O)(=O)c2ccc3c(c2)c(=O)nc2ccccn23)C1 (stereo not drawn) | inactive: 5.25%
